# Data reported in the RNAGym collection of RNA variant scans (doi:10.7554/elife.90254).
# Read counts are not given, so values of variants with three or more changes are uncertain.
# B1: OR4K15 (parent)
# chain: GUUAACGGUCAUAGGCCAUGGAAACUAGGAGCACCAUUUCGCUGCCAGUGAAGAAAUGAACAAAGAAAAUCUGGGCCAGGCAGGCAUCAAAAGAAAUAGUCUUGCGCUCAACCAGAAAGUCUGUAAUCAUUUUAAGGGUA
# Variants of: B1
# Test: self-cleavage, relative activity (ratio to wild type); higher = more cleavage; in vitro, sequencing; the parent is a self-cleaving ribozyme
row,Variant,self-cleavage
1,GUUAACGGUCAUAGGCCAUGGAAACUAGGAGCACCAUUUCGCUGCCAGUGAAGAAAUGAACAAAGGAAAUCUGGGCCAGGCAGGCAUCAAAGGGAAUAGUCUUGCGCUCAACCAGAAGGUCUGUAAUCAUUUUAAGGGUA,1.15
2,GUUAACGGUCAUAGGCCAUGGAAACUAGGAGCACCUUUUCGCUGCCAGUGAAGAAAUGAACAAAGAAAAUCUGGGCCAGGCAGGCAUCAGAUGAGAUAGUCUUGCGCUCAACCAGAAAGUCUGUAAUCAUUUUAAGGGUA,0.34
3,GUUAACGGUCAUAGGCCAUGGAAACUAGGAGCACCAUUCCGCUGCCAGUGAAGAAAUGAACAAAGAAAAUCUGGGCCAGGCAGGCAUCAAAGGAAAUAGUCUCGCGCUCAACCAGAAAGUCUGUAAUCAUUUUAAGGGUA,1.32
4,GUUAACGGUCAUGGGCCAUGGAAACUAGGAGCACCAUUUCGCUGCCAGUGAAGAAAUGAACAAAGAAGAUCUGGGCCUGGCAGGCAUCAAAAGAAAUAGUCUUGCGCUCAGCCAGAAAGUCUGUAAUCAUUUUAAGGGUA,0.06
5,GUUAACGGUCUUAGGCCAUGGAAACUAGGAGCACCAUUUCGCUGCCAGUGAAGAAAUGAACAAAGAAAAUCUGGGCCAGGCAGGCAUCAAAAGAAAUAGUCUUGCGCUCGACCAGAAAGUCUGUAACCAUUUUAAGGGUA,0.09
6,GUUAACGGUCAUAGGCCAUGGAAACUAGGAGCACCACUUUGCUGCCAGUGAAGAAAUGAACAAAGAAAAUCUGGGCCAGGCAGGCAUCAAAAGGAAUAGUCUUGCGCUCAACCAGAAAGUCUGUAAUCAUCUUAAGGGUA,0.78
7,GUUAACGGUCAUAGGCCAUGGAGACUAGGAGCACCAUUUCGCUGCCAGUGAAGAAAUGAGCAAAGAAAAUCUGGGCCAGGCAGGCAUCAAAAGAAAUAGUCUUGCGCUCAACCAGAGAGUCUGUAAUCAUUUUAAGGGUA,1.12
8,GUUAACGGUCAUAGGCCAUGGAAACUAGGAGCACCAUUUCGCUGCCAGUGAAGAUAUGAACAAAGAGAAUCUGGGCCAGGCAGGCAUCAAAAGAAAUAGUCUUGCGCUCAACCAGAAAGUCUGUAAUCAUUAUGAGGGUA,0.64
9,GUUGACGGUCAUAGGCCAUGGGAACUAGGAGCACCAUUUCGCUGCCAGUGAAGAAAUGAACAAAGAAAAUCAGGGCCAGGCAGGCACCAAAAGAAAUAGUCUUGCGCUCAACCAGAAAGUCUGUAAUCAUUUUAAGGGUA,0.12
10,GUUAACGGUCAUAGGCCAUGGGAACUAGGGGCACCAUUUCGCUGCCAGUGAAGGAAUGAACAAAGAAAAUCUGGGCCAGGCAGGCAUCAAAAGAAAUAGUCUUGCGCUCAACCAGAAAGUCUGUAAUCAUUUUAAGGGUA,1.02
11,GUUAACGGCCAUAGGCCAUGGAAACUAGGAGCACCGUUUCGCCGCCAGUGAAGAAAUGGACAAAGAAAAUCUGGGCCAGGCAGGCAUCAAAAGAAAUAGUCUUGCGCUCAACCAGAAAGUCUGUAACCAUUUUAAGGGUA,0.82
12,GUUAACGGUCAUAGGCCAUGGAAACUAGGAGCACCACUCCGCUGCCAGUGAAGAAAUGAACAAAGAAAAUCUGGGCGAGGCAGGCAUCAAAAGAAAUAGUCUUGCGCUCAACCAGAAAGUCUGUAAUCAUUUUAAGGGUA,0.03
13,GUUAACGGCCAUAGGCCAUGGAAACUAAGUGCACCAUUUCGCUGCCAGUGAAGAAGUGAACAAAGAAAAUCUGGGCCAGGCAGGCAUCAAAAGAAAUAGUCUUGCGCUCAACCAGAAAGUCUGUAAUCAUUUUAAGGGUA,1.95
14,GUUAACGGUCAUAGGCCAUGGGAACUAGGAGCACCAUUUCGCGGCCAGUGAAGUAAUGAACAAAGAAAAUCUGGGCCAGGCAGGCAUCAAAAGAAAUAGUCUUGCGCUCAACCAGAAAGUCUGUAAUCAUUUUAAGGGUA,1.47
15,GUUAACGGUCAUAGGCCAUGGAAACUAGGGGCACCAUUUCGCUGCCAGUGAAGAAAUGUACAAAGAAAAUCUGGGCCAGGCAGGCAUCAAAAGAAAUAGUCUUGCGCUCUACCAGAAAGUCUGUAAUCAUUUUAAGGGUA,2.06
16,GUUAACGGUCAUAGGCCAUGGAAACUAGGAGCACCAUUUCGCUGCCAGUGAAGAAAUGAACAAAGAAAACCUGGGCCAGGCAGGCAUCAAAAGAAAUAGUCUUGCGCUCAACCAGAAAGUCUGUAAUCAUCUUAAGGGUG,0.07
17,GUUAACGGUCAUAGGCCAUGGAAACUAGGAGCACCAUUUCGCUGCCAGUGAAGAAAUGAGCAAAGAAAAUCUGGGCCAGGCAGGCAUCAUAAGAAAUAGUCUUGCGCUCAACCAGAAAGUCUGCAAUCAUUUUAAGGGUA,1.28
18,GUUAACGAUCAUAGGCCAUGGAAACUAGGAGCACCAUUUCGCUGCCAGCGAAGAAAUGAACAAAGAAAGUCUGGGCCAGGCAGGCAUCAAAAGAAAUAGUCUUGCGCUCAACCAGAAAGUCUGUAAUCAUUUUAAGGGUA,1.84
19,GUUAACGGUCAUAGGCCACGGAAACUAGGAGCACCAUUUCGCCGCCAGUGAAGAAAUGAACAAAGAAAAUCUGGGCCAGGCAGGCAUCAAAAGAAAUAGUCCUGCGCUCAACCAGAAAGUCUGUAAUCAUUUUAAGGGUA,1.75
20,GUUAACGGUCAUAGGCCAUGGAAACUAGGAGCACCAUUUCGCUGCCAGUGAAGAAAUGAGCAAAGAAAAUCUGGGCCAGGCAGGCAUCAAAAGAAAUAGUCUUGCGCCCAACCAGAAAGUCAGUAAUCAUUUUAAGGGUA,0
21,GUUAACGGCCAUAGGCCAUGGAAACUAGGGGCACCAUUUCGCUGCCAGUGAAGAAAUGAACAAAGAAAAUCUGGGCCAGGCAGGCAUCAAAAGAAAUAGUCUUGCGCUCAACCAGAGAGUCUGUAAUCAUUUUAAGGGUA,1.97

row,Variant,self-cleavage
1,GUUAACGGUCAUAGGCCAUGGAAGCUAGGGGCACCAUUUCGCUGCCAGUGAAGAAAUGAACAAAGAAAAUCUGAGCCAGGCAGGCAUCAAAAGAAAUAGUCUUGCGCUCAACCAAAAAGUCUGUAGUCAUUUUAAGGGUA,0.03
2,GUUAACGGUCAUAGGCCAUGGAAACUAGGAGCACCAUUUCGCCGCCAGUGAAGAAAUGAACAAAGAAAAUCUGGGCCAGGCAGGCAUCAAAAGAAGUAGUCUUGCGCUCAACCAGAGAGUCCGUAAUCAUUUUAAGUGUA,0.96
3,GUUAACGGUCAUAGGCCAUGGAAACUAGGAGCACCAUUUCGCUGCCAGUGUAGAAAUGAACAAAGAAAAUCUGGGCCAGGCAGGCAUCAAAAGAAAUAGCCUUGCGCUCAACCAGAAAGUCCGUAAUCAUUAUAAGGGUA,2.65
4,GUUAACGGUCAUAGGCCAUGGAAACUGGGAGCACCAUUUCGCAGCCAGUGAAGAAAUGAACAAAGAAAAUCUGGGCCAGGCAGGCGCCAAAAGAAAUAGUCUUGCGCUCAACCAGAAAGUCGGUAAUCAUUUUAAGGGUA,1.59
5,GUUAACGGUCAUAGGCCAUGGAAACUAGGAGCGCCAUUUCGCUGCCAGUGAAGAGAUGAACAAAUAAAAUCUGGGCCAGGCAGGCAUCAAAAGAAAUAGUCUUGCGCUCAACCAGAAAGUCUGUAAUCAUUUUAAGGGUA,0.18
6,GUUAACGGUCAUAGGCCAUGGAAACUAGGAGCACCAUUUCGCCGCCAGUGAAGAAAUGAACAAAGUAAAUCUGGGCCAGGCAGGCAUCAAAAGAAAUAGUCUUGCGCUCAACCAGAAAGUCUGUAAUCAUUUUAAGGGAA,2.09
7,GUUAGCGGUCAUAGGCCAUGGAAACCAGGAGCACCAUUUCGCUGCCAGUGAAGAAAUGAACAAAGGAAAUCUGGGCCAGGCAGGCAUCAAAAGAAAUAGUCUUGCGCUCAACCAGAAAGUCUGUAAUCAUUUUAAAGGUA,2.25
8,GUUAACGGUCAUAGGCCAUGGAAACUAGGAGCACCAUUUCGCUGCCAGUGAAGAAAUGAACUAAGAAAAUCUGGGCCAGCCAGGCACCUAAAGAAAUAGUCUUGCGCUCAACCAGAAAGUCUGUAAUCAUUUUAAGGGUA,0.06
9,GUUAACGGUCGUAGGCCAUGGAAACUAGGAGCACCAUUUCGCUGCCAGUGAAGAAAUGAACAAAGAAAAUUUGGGCCAGGCAGGCAUCAAAAGAAAUAGUCUUGCGCUCCACCAGAAAGUCUGUAAUCAUUUUAAGGGUA,0.11
10,GUUAACGGUCAUAGGCCAUGGAAACUAGGAGCACCAUUUCGCUGCCAGUGAAGAAACGAACAAAGAAAAUCUGGGCCAGGCAGGCAUCAUAAGAAAUAGUCUUGCGCUCAACCAGAAAGUCUAUAAUCAUUUUAAGGGUA,1.47
11,GUUAACGGUCAUAGGCCAUGGAAACUAGGAGCACCAUUUCGCUGCCAGUGAUGAAAUGAACAAAGAAAAUCUGGGCCAGGCAGGCAUCAAAAGGAAUAGUCUUGCGCUCAACCAGAAAGUCUGUAAUCAGUUUAAGGGUA,0.89
12,GUUAACGGAGAUAGGCCAUGGAAACUAGGAGCACCAUUUCGCUGCCAGUGGAGAAAUGAACAAAGAAAGUCUGGGCCAGGCAGGAAUCUAAAGAAAUAGUCUUGCGCUCAACUAGAAAGUCUGUAAUCAUUUUAAGGGUA,0
13,GUUAACGGUCAUAGGCCACGGAAACUAGGAGCACCAUUUCGCUGCCGGUGAAGAAAUGGACAAAGAAAAUCUGGGCCAGGCAGGCAUCAAAAGAAAUAGUCUUGCGCUCAACCAGAAAGUCUGUAAUCAUUUUAAGGGUA,0.85
14,GUUAACGGCCAUAGGCCAUGGAAACUAGGAGCACCAUUUCGCUGCCAGUGAAGAAAUGAACAAAGAAAAUCUGGGCCAGGCAGGCAUCAGAAGAAAUAGUCUUGCGCUCAACCAGAAAGUCUGUAAUCAUUUUGAGGGUA,0.2
15,GUUAACGGUCAUAGGCCAUGGGAACUAGGAGCACCAUUUCGCUGCCAGUGAAGGAGUGAACAAGGAAAAUCUGGGCCAGGCAGGCACCAAAAGAAAUAGUCUUGCGCUCAGCCAGAAAGUCUGUAAUCAUUUUAAGGGUA,0.03
16,GUUAACGGUCAUAGGCCUUGGAAACUAGGAGCACCAUUUCGCUGCCAGUGAAGGAAUGAACAAAGAAGAUCUGGGCCAGGCAGGCAUCAAAAGAAAUAGUCUUGCGCUCAACCAGAAAGUCUGUAAUCAUUUUAAGGGUA,1.18
17,GUUAACGGUCAUAGGCCAUGGAAACUAGGAGCACCAUUUCGCUGCCAGUGAAGAAAUGAACAAAGAAAAUCUGGGCCAGGCAGGCAUCAAAAGAAAUAGUCUUGCGCUCCGCCAGGAAGUCUGUAAUCAUUAUACGGGUA,0
18,GUUAACGGUCAUAGGCCAUGGAAACUAGGAGCACCGUUUCGCUGCCAGUGAAGGAAUGAACAAAGAAAAUCUGGGCCAGGCAGGCAUCAAAAGAAAUAGUCUUGCGCUCGACCAGAAAGUCUGUAAUCAUUCUAAGGGUA,0.45
19,GUUAACGGUCAUAGGCCAUGGAAACUAGGAGCACCAUUUCGCUGCCAGUGAAGAAAUGAACAGAGUAAAUCUGGGCCAGGCAGGCAUCAAAAGAAAUAGUCUUGCGCCCAACCAGAAAGUCUGUAAUCAUUUUAAGGGUA,0.12
20,GUUAACGGUCAUAGGCCAUGGAAACUAGGAGCACCAUUUCGCAGCCAGUGAAGAAAUGAUCAAAGAAAAUCUGGGCCAGGCAGGCACCAAAAGAAUUAGUCUUGCGCUCAACCAGGAAGUCUGUAAUCAUUUUAAGGGUA,1.34
